Variants at the background level are over-represented here.
B1: TPR 5TU (parent)
chain: GGAUCUUCUCGAUCUAACAAAAAAGACAAAUCUGCCACAAAGCUUGAGAGCAUCUUCGGAUGCAGAGGCGGCAGCCUUCGGUGGCGCGAUAGCGCCAACGUUCUCAACUAUGACACGCAAAACGCGUGCUCCGUUGAAUGGAGUUUAUCAUG

Variants of: B1
Experiment: polymerase ribozyme fitness, log enrichment relative to wild type (log ratio); higher = more active; in vitro selection for triplet polymerase activity
Outline: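 For each subunit of a heterodimeric triplet polymerase ribozyme, a mutant library was built by PCR and transcribed, then taken through a single in vitro selection round in triplicate. Selection involved annealing to a biotinylated primer, the partner subunit and triplets, incubation frozen at −7 °C, gel excision of extended constructs, capture on streptavidin beads and RT-PCR. Genotypes were retained after Illumina sequencing of inputs and outputs only with ≥10 input reads and ≥1 read in each output. Fitness is defined as the logarithm of a genotype's enrichment relative to wild-type enrichment, using inverse-variance-weighted averages across replicates, with the logarithm taken to base 2.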

Row | Variant | polymerase ribozyme fitness (log ratio)
1 | C54A G59A C63U G88U A107U U145A | ≤ -4.2
2 | C54G G58C A122G G124U | -2.2
3 | U55A C76A C114U | -3.91
4 | C54U C57A C75G C87G | ≤ -4.2
5 | C54G C96U A98G | -1.19
6 | C54G C108G C114A G143U | ≤ -4.2
7 | C54A U109C | ≤ -4.2
8 | C54A A91C C93U G117A | ≤ -4.2
9 | U55A A60U U101G | -0.433
10 | C54G G88C A142U | ≤ -4.2
11 | C54G G88C A142C | ≤ -4.2
12 | C54U C85G G94U G124A A137U | ≤ -4.2
13 | C54A C85G G117U G126U A137U | ≤ -4.2
14 | C54U G92A A115C A138C | ≤ -4.2
15 | U55A C69G U146A | -3.62
16 | C54A C76A C87G G124A | ≤ -4.2
17 | C54U U77A C87A A97G A107G G140U | ≤ -4.2
18 | C54U U61G G71A A91G | ≤ -4.2
19 | U55A A91G G92A | ≤ -4.2
20 | C54G A147C | -1.47
21 | C54A G70A | -3.79

Row | Variant | polymerase ribozyme fitness (log ratio)
22 | C54U C75G | -3.81
23 | C54U U78A | ≤ -4.2
24 | C54U G59C U77C C95A A113U | ≤ -4.2
25 | C54A U101G C108U A115U G117U C129U G133A | ≤ -4.2
26 | C54U G86C A91U A137U | ≤ -4.2
27 | C54U C69G G140A | ≤ -4.2
28 | C54A A115C | -1.87
29 | C54A U101A | -2.39
30 | C54U U56C C93U A150U | 0.278
31 | C54U C57A G68C G81U G83A A91C | ≤ -4.2
32 | U55A C72A A119U | ≤ -4.2
33 | C54U A91U | ≤ -4.2
34 | C54U C63A G92A G128A U148G | ≤ -4.2
35 | U55A C79U | -2.74
36 | C54U G67A G74U C75U A97U U102G U139A | ≤ -4.2
37 | C54A G58C C79A | ≤ -4.2
38 | U55A C75G C93A C105G | ≤ -4.2
39 | C54U C93U C105G G126C | -2.01
40 | C54A C76U A91U G141C | ≤ -4.2
41 | C54U C87G C129G | ≤ -4.2
42 | C54U G58A G80A C96U G124A G143C | ≤ -4.2

Row | Variant | polymerase ribozyme fitness (log ratio)
43 | C54U G84U | -2.22
44 | U55A C76A G84C G86C | ≤ -4.2
45 | C54U A91C G92U C105U G133U | ≤ -4.2
46 | C54G U55A G58A C99G C132A | ≤ -4.2
47 | C54G G88C G112U | ≤ -4.2
48 | C54G G84A | -1.74
49 | C54A C72U G88U C93U | ≤ -4.2
50 | C54G C87U U101G A121C C149G | ≤ -4.2
51 | C54A A106C | -2.06
52 | C54A C93G U135G | ≤ -4.2
53 | C54A U90G C114G U127G U145C | ≤ -4.2
54 | C54G C85U U90A | ≤ -4.2
55 | C54U A60C C99U | -3.17
56 | C54A G58A A91U C95A | ≤ -4.2
57 | U55A A122G | -0.237
58 | C54U C76U C87A A91C A98U C108G A115G U130A | ≤ -4.2
59 | C54G C57A C85A G92A G126A | ≤ -4.2
60 | C54G G83A U102C | ≤ -4.2
61 | C54G A89G G92C G100A | ≤ -4.2
62 | C54U U55A A91U C105G | ≤ -4.2
63 | C54U G58C | -0.858

Row | Variant | polymerase ribozyme fitness (log ratio)
64 | C54U C96A C105G G124U | -3.42
65 | U55A A115U U127G U135A U145A | -1.32
66 | U55A C57G A89U G136C | -3.69
67 | U55A C72U G83A | -0.82
68 | C54G A89U C95U A97C | -2.48
69 | C54A G59A C87U | -1.95
70 | C54U U56A G133C | -1.7
71 | C54G G62U A73G G86C | ≤ -4.2
72 | C54U C87A C99U U109G G140C | ≤ -4.2
73 | U55A A66U C79U G80C C87G C116U U145G | ≤ -4.2
74 | C54G C79G C85U G117A G136U A150G | ≤ -4.2
75 | C54A G70U G94A | -4.02
76 | C54G C75G C87A | ≤ -4.2
77 | C54G G62C C76U G83U A115C | ≤ -4.2
78 | C54A G83C G117A U151G | ≤ -4.2
79 | C54G G83A C96U A110G C132U A142C | ≤ -4.2
80 | C54U C57G G84U C85U C132U | -3.94
81 | C54G U55A G70U G81C C87U G94C C96A C105A A120C | ≤ -4.2
82 | C54G C95U U127G | ≤ -4.2
83 | C54U G70A G92A | ≤ -4.2
84 | C54U C87U | -1.08

Source: the RNAGym collection of RNA variant scans (doi:10.1073/pnas.2313332121)
